Test results taken from the supplement of paper PMC10369915.
This is one part of the list. Rule as the data show it: active = 3.2 or more and inactive = the rest. The signal is at background level for most entries.

target: SHP2 C-SH2 domain E139D; test: enrichment score (SH2-bound / input frequency) (ratio); bacterial display of known human phosphotyrosine sites (pTyr-Var adds point mutants) read by sequencing; higher = stronger binding; tyrosines were phosphorylated by kinases first; conditions: peptide library: pTyr-Var
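Also: displayed peptides selected on beads carrying the immobilized SH2 domain, with library peptides lacking any tyrosine serving as negative controls.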

Enrichment score, active:
ILIFHYAKGQP [MPZ_Y82_S78L] 3.41

Enrichment score, inactive:
KIITDYYVDMK [MPP4_Y566_V562I] 1.21
LLLLFYVVRYC [MPZ_Y177] 1.73
LLLLFCVVRYC [MPZ_Y177_Y177C] 1.8
FYVVRYCWLRR [MPZ_Y181] 0.306
FCVVRYCWLRR [MPZ_Y181_Y177C] 0.314
QTPVLYTMLDH [MPZ_Y220_A221T] 2.59
QTPVLYAMLFH [MPZ_Y220_D224Y_YF] 0.558
ISIFHYAKGQP [MPZ_Y82] 2.1
ISIFHCAKGQP [MPZ_Y82_Y82C] 0.79
LWPIWYRCRRP [MRGPRX1_Y130_H133R] 0.202
PLFKICVAELI [MRPL28_Y230_Y230C] 0.754
KMGNIYRTEYG [MRPL3_Y265] 0.832
KTGNIYRTEYG [MRPL3_Y265_M261T] 1.22
KTGNIYRTEFG [MRPL3_Y265_M261T_YF] 0.766
RDSQIYAVDYE [MRPS34_Y34_L33I] 0.891
RDSQIYAVDFE [MRPS34_Y34_L33I_YF] 0.778
RDSQLYAVDFE [MRPS34_Y34_YF] 0.693
SLNEEYTKNKT [MSH2_Y563] 0.593

target: SHP2 C-SH2 domain wild-type; test: as above; conditions: peptide library: pTyr-Var

Enrichment score, active:
QTPVLYTMLDH [MPZ_Y220_A221T] 3.42

Enrichment score, inactive:
KIITDYYVDMK [MPP4_Y566_V562I] 1.26
LLLLFYVVRYC [MPZ_Y177] 1.66
LLLLFCVVRYC [MPZ_Y177_Y177C] 1.99
FYVVRYCWLRR [MPZ_Y181] 0.191
FCVVRYCWLRR [MPZ_Y181_Y177C] 0.311
QTPVLYAMLFH [MPZ_Y220_D224Y_YF] 0.628
ISIFHYAKGQP [MPZ_Y82] 1.49
ILIFHYAKGQP [MPZ_Y82_S78L] 3.03
ISIFHCAKGQP [MPZ_Y82_Y82C] 0.777
LWPIWYRCRRP [MRGPRX1_Y130_H133R] 0.195
PLFKICVAELI [MRPL28_Y230_Y230C] 0.973
KMGNIYRTEYG [MRPL3_Y265] 0.721
KTGNIYRTEYG [MRPL3_Y265_M261T] 0.94
KTGNIYRTEFG [MRPL3_Y265_M261T_YF] 0.637
RDSQIYAVDYE [MRPS34_Y34_L33I] 0.631
RDSQIYAVDFE [MRPS34_Y34_L33I_YF] 0.949
RDSQLYAVDFE [MRPS34_Y34_YF] 0.934
SLNEEYTKNKT [MSH2_Y563] 0.63

target: SHP2 N-SH2 domain L43F; test: as above; conditions: peptide library: pTyr-Var

Enrichment score, inactive:
KIITDYYVDMK [MPP4_Y566_V562I] 1.19
LLLLFYVVRYC [MPZ_Y177] 1.57
LLLLFCVVRYC [MPZ_Y177_Y177C] 1.74
FYVVRYCWLRR [MPZ_Y181] 0.232
FCVVRYCWLRR [MPZ_Y181_Y177C] 0.249
QTPVLYAMLFH [MPZ_Y220_D224Y_YF] 0.567
ISIFHYAKGQP [MPZ_Y82] 1.66
ISIFHCAKGQP [MPZ_Y82_Y82C] 0.885
LWPIWYRCRRP [MRGPRX1_Y130_H133R] 0.304
PLFKICVAELI [MRPL28_Y230_Y230C] 0.562
KMGNIYRTEYG [MRPL3_Y265] 0.922
KTGNIYRTEYG [MRPL3_Y265_M261T] 0.683
KTGNIYRTEFG [MRPL3_Y265_M261T_YF] 0.686
RDSQIYAVDYE [MRPS34_Y34_L33I] 0.764
RDSQIYAVDFE [MRPS34_Y34_L33I_YF] 0.897
RDSQLYAVDFE [MRPS34_Y34_YF] 1.08
SLNEEYTKNKT [MSH2_Y563] 0.437

Enrichment score, active:
QTPVLYTMLDH [MPZ_Y220_A221T] 10.2
ILIFHYAKGQP [MPZ_Y82_S78L] 3.23

target: SHP2 N-SH2 domain T42A; test: as above; conditions: peptide library: pTyr-Var

Enrichment score, inactive:
KIITDYYVDMK [MPP4_Y566_V562I] 1.08
LLLLFYVVRYC [MPZ_Y177] 1.48
LLLLFCVVRYC [MPZ_Y177_Y177C] 1.62
FYVVRYCWLRR [MPZ_Y181] 0.349
FCVVRYCWLRR [MPZ_Y181_Y177C] 0.201
QTPVLYAMLFH [MPZ_Y220_D224Y_YF] 0.745
ISIFHYAKGQP [MPZ_Y82] 1.67
ILIFHYAKGQP [MPZ_Y82_S78L] 2.55
ISIFHCAKGQP [MPZ_Y82_Y82C] 0.924
LWPIWYRCRRP [MRGPRX1_Y130_H133R] 0.263
PLFKICVAELI [MRPL28_Y230_Y230C] 0.409
KMGNIYRTEYG [MRPL3_Y265] 0.73
KTGNIYRTEYG [MRPL3_Y265_M261T] 0.658
KTGNIYRTEFG [MRPL3_Y265_M261T_YF] 0.738
RDSQIYAVDYE [MRPS34_Y34_L33I] 0.914
RDSQIYAVDFE [MRPS34_Y34_L33I_YF] 0.868
RDSQLYAVDFE [MRPS34_Y34_YF] 0.546
SLNEEYTKNKT [MSH2_Y563] 0.461

Enrichment score, active:
QTPVLYTMLDH [MPZ_Y220_A221T] 18.4

target: SHP2 N-SH2 domain T52S; test: as above; conditions: peptide library: pTyr-Var

Enrichment score, inactive:
KIITDYYVDMK [MPP4_Y566_V562I] 1.16
LLLLFYVVRYC [MPZ_Y177] 2.08
LLLLFCVVRYC [MPZ_Y177_Y177C] 1.73
FYVVRYCWLRR [MPZ_Y181] 0.205
FCVVRYCWLRR [MPZ_Y181_Y177C] 0.191
QTPVLYAMLFH [MPZ_Y220_D224Y_YF] 0.72
ISIFHYAKGQP [MPZ_Y82] 2.05
ILIFHYAKGQP [MPZ_Y82_S78L] 2.83
ISIFHCAKGQP [MPZ_Y82_Y82C] 0.903
LWPIWYRCRRP [MRGPRX1_Y130_H133R] 0.168
PLFKICVAELI [MRPL28_Y230_Y230C] 0.725
KMGNIYRTEYG [MRPL3_Y265] 0.788
KTGNIYRTEYG [MRPL3_Y265_M261T] 0.728
KTGNIYRTEFG [MRPL3_Y265_M261T_YF] 0.729
RDSQIYAVDYE [MRPS34_Y34_L33I] 0.834
RDSQIYAVDFE [MRPS34_Y34_L33I_YF] 0.974
RDSQLYAVDFE [MRPS34_Y34_YF] 0.581
SLNEEYTKNKT [MSH2_Y563] 0.758

Enrichment score, active:
QTPVLYTMLDH [MPZ_Y220_A221T] 10.7

target: SHP2 N-SH2 domain wild-type; test: as above; conditions: peptide library: pTyr-Var

Enrichment score, active:
QTPVLYTMLDH [MPZ_Y220_A221T] 4.5
ILIFHYAKGQP [MPZ_Y82_S78L] 3.2

Enrichment score, inactive:
KIITDYYVDMK [MPP4_Y566_V562I] 1.01
LLLLFYVVRYC [MPZ_Y177] 1.38
LLLLFCVVRYC [MPZ_Y177_Y177C] 1.69
FYVVRYCWLRR [MPZ_Y181] 0.172
FCVVRYCWLRR [MPZ_Y181_Y177C] 0.322
QTPVLYAMLFH [MPZ_Y220_D224Y_YF] 0.522
ISIFHYAKGQP [MPZ_Y82] 1.82
ISIFHCAKGQP [MPZ_Y82_Y82C] 1
LWPIWYRCRRP [MRGPRX1_Y130_H133R] 0.261
PLFKICVAELI [MRPL28_Y230_Y230C] 0.996
KMGNIYRTEYG [MRPL3_Y265] 0.721
KTGNIYRTEYG [MRPL3_Y265_M261T] 0.717
KTGNIYRTEFG [MRPL3_Y265_M261T_YF] 0.695
RDSQIYAVDYE [MRPS34_Y34_L33I] 0.847
RDSQIYAVDFE [MRPS34_Y34_L33I_YF] 0.865
RDSQLYAVDFE [MRPS34_Y34_YF] 0.802
SLNEEYTKNKT [MSH2_Y563] 0.431
